According to a collection of fitness landscapes (doi:10.1126/science.1257360):
This is one part of the list.

B1: PhoQ; a variant is named by its letters at X, in order, P23837 (parent)
chain: MKKLLRLFFPLSLRVRFLLATAAVVLVLSLAYGMVALIGYSVSFDKTTFRLLRGESNLFYTLAKWENNKLHVELPENIDKQSPTMTLIYDENGQLLWAQRDVPWLMKMIQPDWLKSNGFHEIEADVNDTSLLLSGDHSIQQQLQEVREDDDDAEMTHSVAVNVYPATSRMPKLTIVVVDTIPVELKSSYMVWSWFIYVLSANLLLVIPLLWVAAWWSLRPIEALAKEVRELEEHNRELLNPATTRELTSLVRNLNRLLKSERERYDKYRTTLTDLTHSLKTPLXXLQXXLRSLRSEKMSVSDAEPVMLEQISRISQQIGYYLHRASMRGGTLLSRELHPVAPLLDNLTSALNKVYQRKGVNISLDISPEISFVGEQNDFVEVMGNVLDNACKYCLEFVEISARQTDEHLYIVVEDDGPGIPLSKREVIFDRGQRVDTLRPGQGVGLAVAREITEQYEGKIVAGESMLGGARMEVIFGRQHSAPKDE

Variants of: B1
Experiment: enrichment ratio after two sorts for PhoP signalling (ratio (wild type AVST 3.29)); higher = more functional
Details: with PhoP (E. coli)

Variant | enrichment ratio
DWGA | ≤ 0.25
SNVY | 1.11
AHFM | ≤ 0.25
YLFQ | ≤ 0.25
VSNC | ≤ 0.25
QCPW | ≤ 0.25
WIVA | ≤ 0.25
TCMF | 26.2
LWER | ≤ 0.25
HWKN | ≤ 0.25
FKEL | ≤ 0.25
GSIV | 8.6
DPTC | ≤ 0.25
YMQI | ≤ 0.25
DNRC | ≤ 0.25
PAEV | ≤ 0.25
QHYW | ≤ 0.25
HRNE | ≤ 0.25
SYRP | ≤ 0.25
RFSP | ≤ 0.25
TKRN | ≤ 0.25

Variant | enrichment ratio
WQPA | ≤ 0.25
AWMV | ≤ 0.25
YEFM | ≤ 0.25
MSMR | ≤ 0.25
NAIW | ≤ 0.25
SSHC | ≤ 0.25
QLTQ | ≤ 0.25
PVDF | 0.502
ASWE | ≤ 0.25
HKHP | ≤ 0.25
VPNL | ≤ 0.25
SIPS | 0.688
EFKT | ≤ 0.25
NTKC | ≤ 0.25
NLLC | ≤ 0.25
RMYY | ≤ 0.25
PYPF | ≤ 0.25
NGGF | ≤ 0.25
EFPI | ≤ 0.25
VFHD | ≤ 0.25
FIHV | ≤ 0.25

Variant | enrichment ratio
AWSL | ≤ 0.25
YKHG | ≤ 0.25
PTGE | ≤ 0.25
LKYC | ≤ 0.25
FPDL | ≤ 0.25
TMER | ≤ 0.25
WETK | ≤ 0.25
YRCW | ≤ 0.25
QSVM | ≤ 0.25
WSVV | ≤ 0.25
VSQK | ≤ 0.25
IWRL | ≤ 0.25
FMWT | ≤ 0.25
KMLE | ≤ 0.25
STRS | 0.355
YVCR | ≤ 0.25
QKNV | ≤ 0.25
QGCT | ≤ 0.25
LEQC | ≤ 0.25
ALEP | ≤ 0.25
DVCW | ≤ 0.25

Variant | enrichment ratio
DLIF | ≤ 0.25
NFWT | ≤ 0.25
ANVS | 7.14
MALC | 7.69
FWDQ | ≤ 0.25
TQGS | 10.5
YRGS | 0.346
TMFP | ≤ 0.25
GKIF | ≤ 0.25
APVL | ≤ 0.25
NGYC | ≤ 0.25
FMFR | ≤ 0.25
RVYM | ≤ 0.25
IIRW | ≤ 0.25
RLHG | ≤ 0.25
YKAG | ≤ 0.25
AFRC | ≤ 0.25
SMMH | 15.6
IIMS | ≤ 0.25
KYNQ | ≤ 0.25
DRRY | ≤ 0.25
